Source: PubChem BioAssay AID1508623 (National Center for Advancing Translational Sciences (NCATS), 2021)
About 450 (0.94%) of roughly 48,000 compounds were called active. Another 19% or so got no clear call; they are omitted. Calls follow the shape of the dose curve; as a rule, active = well fitted inhibition curve with a large enough effect; inconclusive = small, poorly fitted or top-dose-only effect; inactive = no such curve, though single readings can be large or run the other way. Some of the results follow.

test: Primary qHTS for Identification of Small Molecule Inhibitors of Huntingtin Promoter Activity; conditions: HEK293 HTT promoter firefly luciferase reporter (activity 0% = vehicle and -100% = no light), 24 h; series mostly up to 57.5 µM; activity change, negative = inhibition: at the top concentration; also: nearly all actives have a fitted effect of over 50% in size
Summary of the method: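 Firefly luciferase signal from promoter-reporter HEK293 cells was scaled between vehicle (0%) and zero RLU (-100%). Compounds were tested at final concentrations of up to 57.5 uM over 24 h at 37 degrees C. PTC124 at 50 uM final served as control inhibitor.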

Activity change, negative = inhibition, inactive:
CCOC(=O)c1c(-c2ccccc2)oc2ccc(N(C(C)=O)S(=O)(=O)c3cc(C)ccc3C)cc12 0.665%
CCc1c(C)nc(SCC(=O)N2CCN(c3ccccc3OC)CC2)[nH]c1=O -6.37%
CCOC(=O)c1ccccc1NC(=O)Cn1cc(C(=O)c2cccc(OC)c2)c(=O)c2ccc(C)nc21 -8.23%
CCOC(=O)c1c(C)[nH]c(CCC(=O)NCCCN2CCN(c3ccc(F)cc3)CC2)c1C -21.2%
Cc1cccc(-c2nc(S(=O)(=O)c3ccc(F)cc3)c(N3CCN(c4ccccc4)CC3)o2)c1 -4.86%
Cc1ccc(CCNC(=O)c2ccc3c(c2)N(Cc2cccc(C)c2)C(=O)c2ccccc2S3(=O)=O)cc1 -4.32%
CC(C)c1ccc(NC(=O)c2cc3c(s2)-c2ccccc2SC3)cc1 -17.5%
Cc1cc(=O)[nH]c2nnc(SCC(=O)NC(C)(C)C)n12 -5.51%
CCc1ccc(N=C2NC(=O)CC(C(=O)Nc3ccc(OC)cc3)S2)cc1 (stereo unspecified) -6.19% [at 11.5 µM]
COc1cc2c(cc1OC)C(COc1ccccc1OC)N(C(=O)CC(C)C)CC2 (stereo unspecified) -21.4%
CC(=O)N1CCc2cc(CNS(=O)(=O)c3ccc(F)cc3)ccc21 10.1%
CCc1ccc(-c2cn3c(n2)sc2cc(C(=O)NC4CCCCCC4)ccc23)cc1 -13.1%
O=C(NCc1cccc(Cl)c1)c1cc2c(s1)-c1ccccc1OC2 -4.95%
COCCc1nn2c(=O)cc(COC(=O)c3ccc4c(c3)OCO4)nc2s1 -2.19%
Cc1ccc(NC2=C(c3ccc(C(F)(F)F)cc3)C(=O)c3ccccc32)cc1C 20.9%
CC(=O)Nc1ccc(C(=O)CSc2nnc(-c3ccccc3)n2-c2ccccc2)cc1 -24.5%
Cc1ccc(-c2cc(C(=O)NCc3cnn(C)c3C)c3cc(Br)ccc3n2)cc1 17.8%
O=C(NC1CC1)c1ccc(Cn2c(SCc3cccc(F)c3)nc3cccnc32)cc1 -17.2%
O=C(Nc1ccc(Cl)cc1)C1CCN(c2nc3ccccc3nc2C(F)(F)F)CC1 1.35%
COc1ccccc1N1CCN(C(=O)c2ccc(CS(=O)c3ccccc3C)o2)CC1 (stereo unspecified) -26.4%
CCS(=O)(=O)N1CCc2cc(C(=O)NCc3ccc(OC)cc3)ccc21 -2.51%
Cn1cc(S(=O)(=O)c2cccc(Cl)c2)c(=O)c2cc(F)c(N3CCCCCC3)cc21 -10%
O=C(O)P(=O)(O)O 5.74%
CCC(CC)C(=O)Nc1ccc(OCc2cc(=O)n3c4c(sc3n2)CCCC4)cc1 -14.2%
CCOc1ccc(NC(=O)c2ccc3c(SCC(=O)O)c4c(nc3c2)CCCC4)cc1 -39.5%
O=C(Nc1ccc(NC(=O)c2cc3ccccc3o2)cc1)c1ccccc1 0.241%
O=C(CN1CCN(S(=O)(=O)c2cc(Cl)ccc2Cl)CC1)Nc1cccc(F)c1 -24.7%
Cn1cc(S(=O)(=O)c2ccc(Cl)cc2)c(=O)c2cc(F)c(N3CCCCCC3)cc21 -8.55%
Fc1ccc(-c2nc(Nc3ccc(F)c(Cl)c3)nc3c2COc2ccccc2-3)cc1 -11%
CC(C(=O)Nc1cccc(C#N)c1)n1nc(-c2ccccc2)c2c(c1=O)CCCC2 (stereo unspecified) -20.5%
CC1=C(C(=O)Nc2ccc(C)cc2C)C(c2ccccc2[N+](=O)[O-])n2ncc(C(=O)Nc3ccccc3)c2N1 (stereo unspecified) 17.1%
CCOC(=O)C1CCCN(C(=O)c2ccc3c(c2)N(Cc2ccccc2)C(=O)c2ccccc2S3(=O)=O)C1 (stereo unspecified) -0.805%
CCCCN(C)CCNC(=O)c1cc(-c2cccnc2)nc2ccc(S(=O)(=O)N3CCC(C)CC3)cc12 1.1%
Cc1ccn2c(c1)nc(=O)c1cc(S(=O)(=O)N3CCC(C)CC3)c(Cl)cc12 -10%
CN(Cc1ccccc1)c1nc(-c2ccc(F)cc2)cc(C(F)(F)F)n1 -17.7%
O=C(COc1ccccc1F)Nc1ccc(C(=O)OCc2cc(=O)n3nc(C4CC4)sc3n2)cc1 -10.6%
Cc1ccc(-c2cc3ncc(C(=O)c4cc([N+](=O)[O-])ccc4O)cn3n2)cc1 -6.66%
Cc1ccc(NC(=O)CCSCCc2ccccn2)cc1 -10.2%
CC1=C(C)C(=O)C(CCCCC#CCCCC#CCO)=C(C)C1=O -17.5%
COc1ccc(Br)cc1CNC(=O)CCCn1c(=O)c2cccn2c2ccccc21 -27.5%
CCC(C(=O)Nc1cccc(-c2cn3cccnc3n2)c1)c1ccccc1 (stereo unspecified) -19.6%
CCC(Oc1ccccc1F)C(=O)Nc1c(C(=O)c2ccccc2)oc2ccccc12 (stereo unspecified) -3.59%
CC(C)(C)OC(=O)N1CCC(c2c(C(=O)NCc3ccc4c(c3)OCO4)cnn2-c2ccc(F)cc2F)CC1 -26.6%
O=C(Nc1ccc(Cl)cc1)C1CCN(c2nc3ccccc3n3cccc23)CC1 -13%
CN(C)c1ccc(C(CNS(=O)(=O)c2ccc(Cl)cc2)N2CCCC2)cc1 (stereo unspecified) -16.1%
CC1=C(C(=O)Nc2ccc(C)cc2C)C(c2ccccc2C)n2ncnc2N1 (stereo unspecified) -43.8%
COc1ccc(CCNC(=O)NCc2noc3ccccc23)c(OC)c1 -14.8%
CC(C)NCC(O)c1ccc(NS(C)(=O)=O)cc1 (stereo unspecified) 6.27%
Cc1cccc(-c2nc3c(C#N)c[nH]n3c2NC2CCCCC2)c1 8.82%
Cc1nn(-c2ccc3nncn3n2)c(C)c1CCC(=O)Nc1ccc(OC(F)(F)F)cc1 -12.9%
Cc1ccccc1CNC(=O)c1ccc(-n2c(C)cc3c2CCCC3)cc1 10.2%
COc1ccccc1CNC(=O)C1CCN(Cc2nc(-c3ccc(OC)c(OC)c3)oc2C)CC1 -8.91%
CCCN(CCC)C(=O)Cn1c(=O)n(Cc2ccc(C(=O)NCCc3ccc(OC)c(OC)c3)cc2)c(=O)c2ccccc21 -16.9%
CCCN(C(=O)c1cc2c(Cl)nc3ccccc3c2s1)c1cccc(C)c1 -18.2%
COCCNC(=O)c1ccc(Cn2c(SCC(=O)NC(C)C)nc3ccccc3c2=O)cc1 1.2%
COc1ccc(-c2cc3nc(C4CCN(C(=O)OC(C)(C)C)CC4)c(C(=O)Nc4cc(Cl)cc(Cl)c4)cn3n2)cc1 -5.18%
COc1ccc(CNC(=O)c2ccc3c(c2)N(Cc2ccccc2)C(=O)c2ccccc2S3(=O)=O)cc1 -11.5%
CCOc1ccccc1N(C)C(=O)c1nn(-c2ccc(C)cc2)c(=O)c2c1c1ccccc1n2C -1.34%
COc1cc(C=O)ccc1O 0.506%
COc1ccc(OC)c(NC(=O)c2csnn2)c1 2.93%
COCCCNC(=O)c1cc(-c2cccnc2)nc2ccccc12 -21.5%
